The results in this text go back to patent publication US20070128190A1.

This assay deals with human platelet α2β1 integrin (immobilized on microtiter plates) (human) (UniProt P17301). Nature of the assay: competition with Eu-TMC-2206 on platelet α2β1-coated plates, biphasic.

pKi: −log10 of the molar value. Some values that stand alone complete this part of the results.

Chain of UniProt P17301 (P17301 30-1181 E534K limits assumed, chain 1 of 2): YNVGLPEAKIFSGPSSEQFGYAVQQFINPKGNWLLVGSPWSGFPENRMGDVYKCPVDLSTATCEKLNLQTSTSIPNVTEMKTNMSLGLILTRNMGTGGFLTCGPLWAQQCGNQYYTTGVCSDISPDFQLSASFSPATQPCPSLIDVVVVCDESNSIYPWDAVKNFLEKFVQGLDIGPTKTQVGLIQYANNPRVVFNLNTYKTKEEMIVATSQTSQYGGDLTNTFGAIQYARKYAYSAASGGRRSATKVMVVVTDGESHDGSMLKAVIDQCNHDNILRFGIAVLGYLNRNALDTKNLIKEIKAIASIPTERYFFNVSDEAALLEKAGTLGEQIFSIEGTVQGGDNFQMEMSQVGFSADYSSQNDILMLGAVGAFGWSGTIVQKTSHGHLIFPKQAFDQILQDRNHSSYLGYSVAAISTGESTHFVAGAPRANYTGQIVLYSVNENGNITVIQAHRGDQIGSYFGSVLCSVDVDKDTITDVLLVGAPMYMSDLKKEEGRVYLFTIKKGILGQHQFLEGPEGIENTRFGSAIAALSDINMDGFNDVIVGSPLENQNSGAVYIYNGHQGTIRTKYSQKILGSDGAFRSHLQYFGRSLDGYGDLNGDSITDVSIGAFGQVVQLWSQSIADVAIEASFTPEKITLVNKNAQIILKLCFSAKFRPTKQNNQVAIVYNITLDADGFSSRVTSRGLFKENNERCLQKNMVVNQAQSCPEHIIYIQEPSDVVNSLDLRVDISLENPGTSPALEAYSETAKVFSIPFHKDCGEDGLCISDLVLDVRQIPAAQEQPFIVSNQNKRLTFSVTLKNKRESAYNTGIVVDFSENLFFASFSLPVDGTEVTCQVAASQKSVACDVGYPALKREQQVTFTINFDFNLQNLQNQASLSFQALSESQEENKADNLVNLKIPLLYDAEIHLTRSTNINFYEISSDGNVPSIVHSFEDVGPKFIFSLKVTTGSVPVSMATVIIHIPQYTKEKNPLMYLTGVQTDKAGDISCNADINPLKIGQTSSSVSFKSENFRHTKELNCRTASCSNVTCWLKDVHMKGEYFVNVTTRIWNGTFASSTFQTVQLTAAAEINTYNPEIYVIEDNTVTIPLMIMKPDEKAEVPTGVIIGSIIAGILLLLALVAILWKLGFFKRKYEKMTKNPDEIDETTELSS
Chain of UniProt P17301 (chain, as listed by the source limits assumed, chain 2 of 2): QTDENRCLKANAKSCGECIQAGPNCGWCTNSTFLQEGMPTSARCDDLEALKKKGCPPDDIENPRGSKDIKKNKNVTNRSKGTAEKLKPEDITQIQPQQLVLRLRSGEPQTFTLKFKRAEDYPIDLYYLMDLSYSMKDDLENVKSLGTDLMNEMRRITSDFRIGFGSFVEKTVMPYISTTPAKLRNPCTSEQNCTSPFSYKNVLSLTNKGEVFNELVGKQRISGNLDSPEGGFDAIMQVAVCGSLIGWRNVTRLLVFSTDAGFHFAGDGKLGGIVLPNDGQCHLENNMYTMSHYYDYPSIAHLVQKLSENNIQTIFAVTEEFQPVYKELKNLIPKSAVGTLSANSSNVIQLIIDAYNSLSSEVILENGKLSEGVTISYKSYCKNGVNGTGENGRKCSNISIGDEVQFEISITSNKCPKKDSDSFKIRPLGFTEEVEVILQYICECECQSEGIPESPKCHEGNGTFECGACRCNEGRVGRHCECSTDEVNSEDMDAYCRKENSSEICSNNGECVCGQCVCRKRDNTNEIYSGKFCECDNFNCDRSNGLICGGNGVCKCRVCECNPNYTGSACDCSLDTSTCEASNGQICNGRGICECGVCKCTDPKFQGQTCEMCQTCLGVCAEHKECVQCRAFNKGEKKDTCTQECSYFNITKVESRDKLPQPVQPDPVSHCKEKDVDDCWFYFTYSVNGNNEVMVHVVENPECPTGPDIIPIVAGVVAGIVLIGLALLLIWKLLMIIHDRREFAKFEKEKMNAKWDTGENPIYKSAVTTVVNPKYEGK

Take 10G11 (antibody): the negative logarithm of the Ki (pKi) reads like this: (High affinity) 10.30; (Low affinity) 8.11.
